According to PubChem BioAssay AID1476 (National Center for Advancing Translational Sciences (NCATS), 2009):
Out of some 200,000 compounds screened, about 4,500 (2.2%) were called active. Inconclusive results, whose numbers are uncertain, are shown with a selection of clear calls. Calls follow the shape of the dose curve; as a rule, active = well fitted inhibition curve with a large enough effect; inconclusive = small, poorly fitted or top-dose-only effect, or effect the other way; inactive = flat fitted curve, though single readings scatter. A potency beside an inconclusive call is a rough fit, not a confirmed value.

molecular target: Cruzipain (Trypanosoma cruzi) (UniProt P25779); assay: qHTS Assay for Promiscuous and Specific Inhibitors of Cruzain (without detergent); conditions: purified cruzain, Z-FR-AMC fluorescence, no detergent; also: nearly all actives have a fitted effect of over 40% in size;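 as to max response, negative = inhibition: plate controls were enzyme without inhibitor for no effect and buffer without enzyme for full effect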
Chain of UniProt P25779 (P25779 whole entry, looked up): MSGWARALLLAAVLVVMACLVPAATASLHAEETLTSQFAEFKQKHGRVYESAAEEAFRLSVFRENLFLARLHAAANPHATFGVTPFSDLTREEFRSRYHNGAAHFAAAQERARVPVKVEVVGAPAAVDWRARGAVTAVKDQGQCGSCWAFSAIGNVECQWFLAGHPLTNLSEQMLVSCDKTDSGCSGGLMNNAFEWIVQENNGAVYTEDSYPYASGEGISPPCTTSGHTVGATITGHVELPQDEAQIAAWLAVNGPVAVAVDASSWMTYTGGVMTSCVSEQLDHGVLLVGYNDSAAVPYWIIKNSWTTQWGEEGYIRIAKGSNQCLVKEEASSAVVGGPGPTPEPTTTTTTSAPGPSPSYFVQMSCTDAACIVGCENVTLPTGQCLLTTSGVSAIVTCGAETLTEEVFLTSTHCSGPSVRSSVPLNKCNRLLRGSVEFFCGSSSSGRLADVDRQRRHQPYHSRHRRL
Method in brief: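 Detergent-free condition (0.00005% Triton X-100) in acetate buffer pH 5.5 with DTT. 1.5 nM enzyme and compound were pre-mixed 15 min, then 2 uM Z-FR-AMC substrate added; reaction progress from fluorescence change between first and third reads (60 s).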
Potency is read from the fitted curve at half-maximal effect; tags tell the direction and shape of the fitted curve.

| SMILES | Potency | max response, negative = inhibition |
| --- | --- | --- |
| COc1ccc(NS(=O)(=O)c2ccc(O)c(C(=O)OCC(=O)Nc3ccc4c(c3)OCCO4)c2)cc1 | active: 7.94 µM | – |
| COC(=O)c1cccc(NC(=O)Cc2nc(-c3ccccc3)sc2-c2ccc(C)cc2)c1 | inconclusive: 39.8 µM [inhibitor, single point] | – |
| COc1cc(-c2nc(Cn3nnc(C(=O)Nc4ccccc4C)c3C)c(C)o2)cc(OC)c1OC | inconclusive: 3.98 µM [activator, full curve] | – |
| N#Cc1c(NCCN)nc(-c2ccco2)c2c1CCCC2 | active: 25.1 µM | – |
| Cc1ccc(-c2cc(C(=O)N3CCN(c4ncccn4)CC3)c3ccccc3n2)cc1 | inconclusive: 25.1 µM [activator, single point] | – |
| O=C(N/N=C/c1cn(CCOc2ccccc2)c2ccccc12)c1ccncc1 | inconclusive: 39.8 µM [activator, single point] | – |
| Cc1ccc(NC(=O)CSc2ncccc2C(=O)Oc2ccccc2Cl)cc1Cl | inconclusive: 39.8 µM [inhibitor, single point] | – |
| CCc1cccc(CC)c1NC(=O)CCS(=O)(=O)c1ccc(Br)cc1 | – | inactive: -14.7% |
| Cc1ccccc1NC(=O)CSc1nc2c(c(-c3ccco3)c1C#N)CCCC2 | active: 7.94 µM | – |
| c1ccc(NCn2cncn2)nc1 | inconclusive: 7.94 µM [inhibitor, single point] | – |
| CC1OC(OC2C(CO)OC(OC3C(CO)OC(O)C(O)C3O)C(O)C2O)C(O)C(O)C1NC1C=C(CO)C(O)C(O)C1O (stereo not drawn) | – | inactive: 1.88% |
| c1ccc2sc(Nc3nc4cc5c(cc4s3)OCO5)nc2c1 | active: 25.1 µM | – |
| CC(C)CN(C(=O)COC(=O)c1cc2c(s1)CCC2)C1CCS(=O)(=O)C1 (stereo not drawn) | inconclusive: 31.6 µM [activator, single point] | – |
| CCOc1ccc(-c2nonc2NC(=O)c2oc3ccc(Cl)cc3c2C)cc1 | – | inactive: -5.76% |
| CSCCC(Nc1ccc(S(=O)(=O)N2CCOCC2)cc1[N+](=O)[O-])C(=O)OCC(=O)NCC(C)C (stereo not drawn) | inconclusive: 39.8 µM [activator, single point] | – |
| COc1ccc(CCNC(=O)Cc2cc(OCc3ccccc3)c(OC)cc2[N+](=O)[O-])cc1OC | inconclusive: 39.8 µM [activator, single point] | – |
| O=C(Nc1cccc2ccccc12)c1ccc(Cn2cc(Cl)cn2)cc1 | inconclusive: 39.8 µM [inhibitor, single point] | – |
| COc1ccc2[nH]cc(CCNc3ncnc4ccc(-c5ccccc5OC)cc34)c2c1 | inconclusive: 25.1 µM [inhibitor, partial curve] | – |
| CC(C)(C)Nc1oc(-c2ccccc2)nc1-c1ccc(C(F)(F)F)cc1 | – | inactive: -10.1% |
| CCOC(=O)c1cc2c(=O)n3ccccc3nc2n(CCOC)c1=NC(=O)C(C)(C)C | inconclusive: 12.6 µM [activator, partial curve] | – |
| O=C(O)c1cc(O)c2c(c1)[C@H]([C@H]1c3cc(C(=O)O)cc(O)c3C(=O)c3c(O[C@@H]4OC(CO)C(O)C(O)C4O)cccc31)c1cccc(O[C@@H]3OC(CO)C(O)C(O)C3O)c1C2=O (stereo partly drawn) | inconclusive: 39.8 µM [inhibitor, single point] | – |

| SMILES | Potency | max response, negative = inhibition |
| --- | --- | --- |
| O=C1CC(N2CCN(C(c3ccccc3)c3ccccc3)CC2)C(=O)N1Cc1ccc(N2CCCC2=O)cc1 (stereo not drawn) | inconclusive: 25.1 µM [activator, single point] | – |
| COc1ccc(C(=O)c2c(C)n(CCN3CCOCC3)c3cc(I)ccc23)cc1 | inconclusive: 15.8 µM [activator, single point] | – |
| CCCCCCCCCCCCC/C=C/[C@@H](O)[C@@H](N)COP(=O)([O-])OCC[N+](C)(C)C | inconclusive: 39.8 µM [activator, single point] | – |
| Cc1oc(-c2ccccc2F)nc1CN1CCC(C(=O)NCCc2ccc(Cl)cc2)CC1 | – | inactive: 1.36% |
| CCOc1ccccc1-c1nc(-c2cc3ccccc3nc2OC)no1 | inconclusive: 39.8 µM [activator, single point] | – |
| CCOc1ccc(CN2CCN(S(=O)(=O)c3ccc(Cl)cc3)CC2)cc1 | – | inactive: -1.46% |
| O=C(COC(=O)c1cn(-c2ccccc2)nc1-c1ccccc1)c1cccc([N+](=O)[O-])c1 | inconclusive: 31.6 µM [inhibitor, single point] | – |
| Cc1sc(N/N=C/c2ccco2)nc1-c1ccccc1 | inconclusive: 39.8 µM [inhibitor, single point] | – |
| Nc1cccc(C2=Nc3cccc4cccc(c34)N2)c1 | active: 7.94 µM | – |
| Cc1cc(O)ccc1Nc1nc2ccccc2nc1Nc1ccc(O)cc1C | active: 10 µM | – |
| Cc1nn(-c2cccc(Cl)c2)c2nc(-c3ccco3)cc(C(=O)O)c12 | inconclusive: 39.8 µM [activator, single point] | – |
| O=C(Cn1cnc2c(cnn2-c2ccc(F)cc2)c1=O)NCCc1ccccc1 | inconclusive: 39.8 µM [inhibitor, single point] | – |
| Cc1ccc(CNC(=O)Cc2csc(Nc3nc(=S)[nH]c4ccccc34)n2)cc1 | active: 10 µM | – |
| Cn1cccc1Cc1nnc(SCC(=O)NCCc2ccccc2)n1-c1ccc(F)cc1 | inconclusive: 39.8 µM [activator, single point] | – |
| Oc1c(C(c2cccs2)N2CCN(c3cccc(Cl)c3)CC2)sc2ncnn12 (stereo not drawn) | inconclusive: 25.1 µM [activator, single point] | – |
| O=c1c2oc3ccccc3c2n(Cc2cccc(Cl)c2)c(=O)n1Cc1ccc2c(c1)OCO2 | inconclusive: 39.8 µM [inhibitor, single point] | – |
| COC(=O)c1cc2oc(C)cc2n1Cc1cccc(Cl)c1 | – | inactive: -3.52% |
| Cc1cc(NC(=O)CSc2nc(-c3cccs3)cc(C(F)(F)F)n2)no1 | inconclusive: 39.8 µM [inhibitor, single point] | – |
| COc1ccc(OC)c(NC(=O)c2c(NC(=O)CCC(=O)O)sc3c2CCCCC3)c1 | inconclusive: 39.8 µM [activator, single point] | – |
| O=[N+]([O-])c1cc(S(=O)(=O)N2CCCC2)ccc1NN=C1CCCCC1 | – | inactive: 18.6% |
| C=CCn1c(NC(=O)c2ccccc2Cl)c(C#N)c2nc3ccccc3nc21 | inconclusive: 39.8 µM [activator, single point] | – |

| SMILES | Potency | max response, negative = inhibition |
| --- | --- | --- |
| CCCC(=O)N(Cc1cc2ccccc2[nH]c1=O)c1ccccc1OC | – | inactive: 9.21% |
| OC1(c2cccc(C(F)(F)F)c2)CCN(c2ncnc3c2[nH]c2ccc(F)cc23)CC1 | inconclusive: 39.8 µM [inhibitor, single point] | – |
| Cc1ccc(S(=O)(=O)c2nnn(CC(=O)Nc3ccccc3C)c2N)cc1C | – | inactive: -7.42% |
| COC(=O)c1sc(-c2ccccc2)cc1NC(=O)c1ccc(F)cc1 | active: 10 µM | – |
| COc1cc(C(=O)O/N=C2\CCCc3c2ccc(OC)c3[N+](=O)[O-])cc(OC)c1OC | inconclusive: 25.1 µM [activator, partial curve] | – |
| O=C(OCC(=O)N1CCN(C(=O)c2ccco2)CC1)c1ccccc1OCc1ccccc1 | inconclusive: 39.8 µM [activator, single point] | – |
| CCOC(=O)CNC(c1ccccc1)c1cc(Br)ccc1NC(=O)c1ccc(Cl)cc1 (stereo not drawn) | – | inactive: -24.7% |
| Cc1cc(C2=CC(C)(c3cc(C)oc3C)Nc3nc(C(F)(F)F)nn32)c(C)o1 (stereo not drawn) | inconclusive: 39.8 µM [activator, single point] | – |
| COCCn1c(SCC(=O)c2ccc(OC)cc2)nc2cc(C(=O)NC3CCCC3)ccc2c1=O | – | inactive: -5.32% |
| COC(=O)CC1C(C)(C)C(OC(C)=O)C2CC3=C4CC(=O)OC(c5ccoc5)[C@]4(C)CCC3[C@@]1(C)C2=O (stereo partly drawn) | inconclusive: 39.8 µM [activator, single point] | – |
| Cc1ccc(S(=O)(=O)Nc2ccc(-c3ccc(N4CCCCCC4)nn3)cc2)cc1C | – | inactive: 17.6% |
| C#CCSc1nc2sc3c(c2c(=O)n1-c1cccc(OC)c1)CCN(C(C)=O)C3 | inconclusive: 25.1 µM [activator, single point] | – |
| CCOc1ccc(/C(O)=C2/C(=O)C(=O)N(c3cc(C)on3)C2c2ccc(C(=O)OC)cc2)cc1 (stereo not drawn) | inconclusive: 39.8 µM [activator, single point] | – |
| Nc1nc(Cn2nnc(-c3ccccc3Cl)n2)nc(N2CCOCC2)n1 | – | inactive: 11.8% |
| Cc1ccc(N2CCN(S(=O)(=O)c3ccc4c(c3)n(C)c(=O)c(=O)n4C)CC2C)cc1 (stereo not drawn) | inconclusive: 31.6 µM [inhibitor, single point] | – |
| CC(CCO)Nc1nc2c(c(=O)n(C)c(=O)n2C)n1Cc1ccc(Br)cc1 (stereo not drawn) | – | inactive: -7.24% |
| CCOC(=O)c1c(NC(=O)c2ccccc2Cl)sc2c1CCc1ccccc1-2 | inconclusive: 31.6 µM [inhibitor, single point] | – |
| CCOc1cccc(C(=O)Nc2ccc3oc(-c4ccc(C(C)(C)C)cc4)nc3c2)c1 | inconclusive: 6.31 µM [inhibitor, single point] | – |
| CC1CCN(C(=S)c2cn(Cc3ccc(F)cc3)c3ccccc23)CC1 | inconclusive: 39.8 µM [inhibitor, single point] | – |
| CC(=O)Nc1ccc(S(=O)(=O)N2CCN(c3cc4c(cc3[N+](=O)[O-])n(C)c(=O)n4C)CC2)cc1 | inconclusive: 39.8 µM [activator, single point] | – |
| N#C/C(=C\c1ccc(OCc2ccccc2)cc1)C(=O)Nc1nc2c(s1)CCN(Cc1ccccc1)C2 | inconclusive: 39.8 µM [inhibitor, single point] | – |
